Test results: the supplement of paper PMC8728848
Some of the results follow.

What was measured:
Experiment in all cases: glycan array binding signal (z-score within array); higher = stronger binding
Conditions in all cases: glycan notation: IUPAC condensed, linker removed
[1] = target: Man(a1-2)Man(a1-6)[Man(a1-3)]Man(a1-6)[Man(a1-2)Man(a1-2)Man(a1-3)]Man(b1-4)GlcNAc(b1-4)GlcNAc
In short: (§1)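 Glycan array binding is given as a within-array Z-score, which can be read as non-binding when negative. The arrays, 3228 of them, came from the Consortium for Functional Glycomics database and were retained only where the protein sequence was available. Z-scores were averaged across arrays of the same protein sequence at different concentrations or buffers and across linkers.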

[2] = target: Man(a1-3)[Man(a1-6)]Man
In short: as §1

[3] = target: Man(a1-3)[Man(a1-6)]Man(a1-6)[Man(a1-2)Man(a1-3)]Man(b1-4)GlcNAc(b1-4)GlcNAc
In short: as §1

[4] = target: Man(a1-3)[Man(a1-6)]Man(a1-6)[Man(a1-3)]Man
In short: as §1

[5] = target: Man(a1-3)[Man(a1-6)]Man(a1-6)[Man(a1-3)]Man(b1-4)GlcNAc(b1-4)GlcNAc
In short: as §1

[6] = target: Man(a1-3)[Man(a1-6)]Man(b1-4)GlcNAc(b1-4)GlcNAc
In short: as §1

[7] = target: Man(a1-6)Man
In short: as §1

[8] = target: Man(b1-4)GlcNAc
In short: as §1

[9] = target: Neu5Ac(a2-3)Gal
In short: as §1

[10] = target: Neu5Ac(a2-3)Gal(b1-3)GalNAc
In short: as §1

[11] = target: Neu5Ac(a2-3)Gal(b1-3)GalNAc(b1-3)Gal(a1-4)Gal(b1-4)Glc
In short: as §1

[12] = target: Neu5Ac(a2-3)Gal(b1-3)GalNAc(b1-4)[Neu5Ac(a2-3)]Gal(b1-4)Glc
In short: as §1

[13] = target: Neu5Ac(a2-3)Gal(b1-3)GalNAc6S
In short: as §1

[14] = target: Neu5Ac(a2-3)Gal(b1-3)GlcNAc
In short: as §1

[15] = target: Neu5Ac(a2-3)Gal(b1-3)GlcNAc(b1-2)Man(a1-3)[Neu5Ac(a2-3)Gal(b1-3)GlcNAc(b1-2)Man(a1-6)]Man(b1-4)GlcNAc(b1-4)GlcNAc
In short: as §1

[16] = target: Neu5Ac(a2-3)Gal(b1-3)GlcNAc(b1-3)Gal(b1-3)GlcNAc
In short: as §1

[17] = target: Neu5Ac(a2-3)Gal(b1-3)GlcNAc(b1-3)Gal(b1-4)GlcNAc
In short: as §1

[18] = target: Neu5Ac(a2-3)Gal(b1-3)GlcNAc(b1-3)GalNAc
In short: as §1

[19] = target: Neu5Ac(a2-3)Gal(b1-3)GlcNAc6S
In short: as §1

[20] = target: Neu5Ac(a2-3)Gal(b1-3)[Fuc(a1-4)]GlcNAc
In short: as §1

[21] = target: Neu5Ac(a2-3)Gal(b1-3)[Fuc(a1-4)]GlcNAc(b1-3)Gal(b1-3)[Fuc(a1-4)]GlcNAc
In short: as §1

[22] = target: Neu5Ac(a2-3)Gal(b1-3)[Fuc(a1-4)]GlcNAc(b1-3)Gal(b1-4)[Fuc(a1-3)]GlcNAc
In short: as §1

[23] = target: Neu5Ac(a2-3)Gal(b1-3)[Neu5Ac(a2-3)Gal(b1-4)]GlcNAc
In short: as §1

[24] = target: Neu5Ac(a2-3)Gal(b1-3)[Neu5Ac(a2-6)]GalNAc
In short: as §1

[25] = target: Neu5Ac(a2-3)Gal(b1-4)Glc
In short: as §1

[26] = target: Neu5Ac(a2-3)Gal(b1-4)GlcNAc
In short: as §1

[27] = target: Neu5Ac(a2-3)Gal(b1-4)GlcNAc(b1-2)Man(a1-3)[GlcNAc(b1-2)Man(b1-4)GlcNAc(b1-2)Man(a1-6)]Man(b1-4)GlcNAc(b1-4)GlcNAc
In short: as §1

[28] = target: Neu5Ac(a2-3)Gal(b1-4)GlcNAc(b1-2)Man(a1-3)[Neu5Ac(a2-6)Gal(b1-4)GlcNAc(b1-2)Man(a1-6)]Man(b1-4)GlcNAc(b1-4)GlcNAc
In short: as §1

[29] = target: Neu5Ac(a2-3)Gal(b1-4)GlcNAc(b1-3)Gal(b1-3)GlcNAc
In short: as §1

[30] = target: Neu5Ac(a2-3)Gal(b1-4)GlcNAc(b1-3)Gal(b1-4)GlcNAc
In short: as §1

[31] = target: Neu5Ac(a2-3)Gal(b1-4)GlcNAc(b1-3)Gal(b1-4)GlcNAc(b1-3)Gal(b1-4)GlcNAc
In short: as §1

[32] = target: Neu5Ac(a2-3)Gal(b1-4)GlcNAc(b1-3)Gal(b1-4)[Fuc(a1-3)]GlcNAc
In short: as §1

[33] = target: Neu5Ac(a2-3)Gal(b1-4)GlcNAc(b1-3)GalNAc
In short: as §1

[34] = target: Neu5Ac(a2-3)Gal(b1-4)GlcNAc(b1-6)[Gal(b1-3)]GalNAc
In short: as §1

[35] = target: Neu5Ac(a2-3)Gal(b1-4)GlcNAc(b1-6)[Neu5Ac(a2-3)Gal(b1-3)]GalNAc
In short: as §1

[36] = target: Neu5Ac(a2-3)Gal(b1-4)GlcNAc6S
In short: as §1

[37] = target: Neu5Ac(a2-3)Gal(b1-4)[Fuc(a1-3)]GlcNAc
In short: as §1

[38] = target: Neu5Ac(a2-3)Gal(b1-4)[Fuc(a1-3)]GlcNAc(b1-3)Gal
In short: as §1

[39] = target: Neu5Ac(a2-3)Gal(b1-4)[Fuc(a1-3)]GlcNAc(b1-3)Gal(b1-4)GlcNAc
In short: as §1

[40] = target: Neu5Ac(a2-3)Gal(b1-4)[Fuc(a1-3)]GlcNAc(b1-3)Gal(b1-4)[Fuc(a1-3)]GlcNAc(b1-3)Gal(b1-4)[Fuc(a1-3)]GlcNAc
In short: as §1

[41] = target: Neu5Ac(a2-3)Gal(b1-4)[Fuc(a1-3)]GlcNAc(b1-3)GalNAc
In short: as §1

[42] = target: Neu5Ac(a2-3)Gal(b1-4)[Fuc(a1-3)]GlcNAc(b1-6)[Gal(b1-3)]GalNAc
In short: as §1

[43] = target: Neu5Ac(a2-3)Gal(b1-4)[Fuc(a1-3)]GlcNAc(b1-6)[Neu5Ac(a2-3)Gal(b1-3)]GalNAc
In short: as §1

[44] = target: Neu5Ac(a2-3)Gal(b1-4)[Fuc(a1-3)]GlcNAc6S
In short: as §1

[45] = target: Neu5Ac(a2-3)Gal6S(b1-4)GlcNAc
In short: as §1

B1: SAG3 (Toxoplasma gondii), Q9BJ39 (protein)
chain: MQLWRRRAAGPASLGRQSLPLGCFFAAFGLCVLSAILGTGERGLFVAAGNSRRKITYFGTLTQKAPNWYRCSSTRAKEEVVGHVTLNKEHPDMTIECVDDGLGGEFLPLEGARSSYPRVCHIDAKDQDDCERNRGFLTDYIPGAKQYWYKIEKVEQNGEQSVLYKFTVPWILLPPAKQRYKVGCRYPNHEYCFVEVTVEPTPPMVEGKRVTCGYSESGPVNLEVDLSKNANFIEIRCGEQHHPQPSTYTLQYCSGDSVDPQKCSPQSLTNIFYDYSSSWWKGKLNGPDGATLTIPPGGFPEEDKSFLVGCSLTVDGPPFCNVKVRVAGNPRKWERGGGGHPGSGGLQPGTDGETQAGTGSSAGASSRMASVALAFLLGLLVHVAA
[1]
  glycan array binding signal (z-score): -0.029
[2]
  glycan array binding signal (z-score): 0.34
[3]
  glycan array binding signal (z-score): -0.582
[4]
  glycan array binding signal (z-score): -0.388
[5]
  glycan array binding signal (z-score): -0.278
[6]
  glycan array binding signal (z-score): -0.298
[7]
  glycan array binding signal (z-score): 0.224
[8]
  glycan array binding signal (z-score): -0.301
[9]
  glycan array binding signal (z-score): 0.268
[10]
  glycan array binding signal (z-score): -0.17
[11]
  glycan array binding signal (z-score): -0.043
[12]
  glycan array binding signal (z-score): -0.184
[13]
  glycan array binding signal (z-score): -0.559
[14]
  glycan array binding signal (z-score): -0.331
[15]
  glycan array binding signal (z-score): 0.056
[16]
  glycan array binding signal (z-score): 0.436
[17]
  glycan array binding signal (z-score): -0.148
[18]
  glycan array binding signal (z-score): -0.032
[19]
  glycan array binding signal (z-score): -0.191
[20]
  glycan array binding signal (z-score): 0.21
[21]
  glycan array binding signal (z-score): 0
[22]
  glycan array binding signal (z-score): -0.301
[23]
  glycan array binding signal (z-score): -0.698
[24]
  glycan array binding signal (z-score): 0.254
[25]
  glycan array binding signal (z-score): -0.168
[26]
  glycan array binding signal (z-score): -0.125
[27]
  glycan array binding signal (z-score): 0.28
[28]
  glycan array binding signal (z-score): -0.319
[29]
  glycan array binding signal (z-score): -0.226
[30]
  glycan array binding signal (z-score): -0.053
[31]
  glycan array binding signal (z-score): 0.226
[32]
  glycan array binding signal (z-score): -0.126
[33]
  glycan array binding signal (z-score): -0.304
[34]
  glycan array binding signal (z-score): -0.412
[35]
  glycan array binding signal (z-score): 0.087
[36]
  glycan array binding signal (z-score): -0.315
[37]
  glycan array binding signal (z-score): -0.439
[38]
  glycan array binding signal (z-score): -0.548
[39]
  glycan array binding signal (z-score): 0.616
[40]
  glycan array binding signal (z-score): -0.31
[41]
  glycan array binding signal (z-score): 16
[42]
  glycan array binding signal (z-score): 3.05
[43]
  glycan array binding signal (z-score): 2.02
[44]
  glycan array binding signal (z-score): -0.106
[45]
  glycan array binding signal (z-score): 0.439
